Data reported in the supplement of paper PMC7826260.
This is one part of the list. Each Rep nickase domain was tested in vitro on the same pool of single strands at 3 µM enzyme and 37 °C for 1 h; the strands have 90 letters, of which the middle is given. Values are log2 of uncut reads against the no-enzyme pool; the lower, the more was cut; hits are not called. Counts are relative to all reads, so uncut sequences can rise above 0 when many others are cut.

System: T1, Rep nickase domain of tomato golden mosaic virus
T1 sequence (Rep 1-124, printed without the tag): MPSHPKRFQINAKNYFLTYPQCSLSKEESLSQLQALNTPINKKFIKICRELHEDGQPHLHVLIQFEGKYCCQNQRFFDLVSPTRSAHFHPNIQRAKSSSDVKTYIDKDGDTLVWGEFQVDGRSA
Test: uncleaved DNA left, log2 of reads against the no-enzyme library (log2 ratio); higher = less cleavage (more negative = more Rep cleavage of the k-mer); sequences stand for … in CTCGTCCG…ACCGGAGA
Description: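 A pool of 90-nt single-stranded DNAs with seven random bases just before the constant AC of the nick site (name = the seven bases) was cut by 3 µM recombinant His6-SUMO-tagged Rep nickase domain (300 nM DNA, 50 mM HEPES pH 8.0, 50 mM NaCl, 1 mM MnCl2, 1 h, 37 °C, three replicates). Uncut DNA was amplified and sequenced.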

Sequence | uncleaved DNA left (log2)
CTACCTC | 0.0406
AGACGGG | 0.088
CTGTTTT | -0.178
TGTACAG | 0.0467
TGGAGTT | 0.0678
ATAAGGT | 0.0229
ATCGCTA | 0.0216
GGAAGGG | 0.0933
GGCAGTG | 0.0311
CCCGTGA | 0.0328
CGCATTT | 0.0141
TAGCCAG | -0.0825
AGAGCTT | 0.0303
GTGGCCG | -0.0898
CATTATA | 0.136
CTTTTCG | -0.144
CCCGGGC | 0.0642
TATGGGA | 0.0629
GCCTTAA | 0.0989
GGGTAAC | 0.115

Sequence | uncleaved DNA left (log2)
GAAAGAG | 0.0709
CAGTCAA | 0.00327
GCATGTG | -0.123
GATTCAG | -0.0851
CCACAGC | 0.00612
TAACCAC | -0.0968
GTAGAGA | 0.123
GAGGTCA | 0.0821
TGGGCCG | -0.0696
TAACCGC | -0.213
TCAGCCT | 0.0227
ATGCTAT | -0.157
GTTAAAT | 0.15
TTCTCAC | -0.00402
GACGTTC | 0.0232
CATGCAA | -0.0929
TTCGCGC | -0.0837
CCGTCCT | 0.0173
TTAGATG | 0.0224
AACACCG | 0.0498
